# Test results taken from the supplement of paper PMC3334620.
# Over roughly 33,000 sequences, “E-score (-0.5 to 0.5)” has its median near -0.012; the highest 2% begin near 0.27. The list shows a part of the results.
# Molecular target: T1, Vhr1 (UniProt P40522)
# T1 sequence: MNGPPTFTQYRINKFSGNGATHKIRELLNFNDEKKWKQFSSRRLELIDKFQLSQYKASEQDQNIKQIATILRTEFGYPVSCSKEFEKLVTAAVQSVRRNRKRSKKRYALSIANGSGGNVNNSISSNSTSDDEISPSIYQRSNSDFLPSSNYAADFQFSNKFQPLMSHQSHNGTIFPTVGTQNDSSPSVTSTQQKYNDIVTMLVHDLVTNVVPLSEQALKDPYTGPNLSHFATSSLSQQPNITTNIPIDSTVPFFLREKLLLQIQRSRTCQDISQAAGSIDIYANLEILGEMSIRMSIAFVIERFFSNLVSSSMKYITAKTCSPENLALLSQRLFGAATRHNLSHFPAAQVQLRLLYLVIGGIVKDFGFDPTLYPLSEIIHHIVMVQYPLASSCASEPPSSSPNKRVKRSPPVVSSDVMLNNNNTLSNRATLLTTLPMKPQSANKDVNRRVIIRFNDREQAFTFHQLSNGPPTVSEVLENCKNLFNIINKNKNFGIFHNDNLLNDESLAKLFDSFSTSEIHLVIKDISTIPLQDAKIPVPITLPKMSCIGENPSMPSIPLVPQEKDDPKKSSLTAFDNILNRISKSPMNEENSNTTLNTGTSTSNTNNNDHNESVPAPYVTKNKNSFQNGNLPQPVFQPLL
# Experiment: PBM E-score (8-mer binding enrichment) (E-score (-0.5 to 0.5)); higher = stronger / more preferred TF binding; most listed sequences are background and not binding sites
# Conditions: protein concentration: 200 nM; construct: GST-full length
# Protocol: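 Universal 'all 10-mer' protein binding microarrays (Agilent AMADID 015681) probed with GST-tagged S. cerevisiae TFs (full-length or DBD) made by in vitro transcription/translation (PURExpress), about 100-200 nM. Bound TF was detected with fluorescent anti-GST. Each ungapped 8-mer (which stands for itself and its reverse complement) is scored by the PBM enrichment score (E-score), a modified Wilcoxon-Mann-Whitney statistic from -0.5 to +0.5, computed with the Universal PBM Analysis Suite. Scale: above 0.35 generally sequence-specific binding.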
row,Sequence,PBM E-score
1,CGTGCTCA,0.0243
2,CCACGACG,0.0688
3,CGGCCGCC,-0.0207
4,AATTGTGC,0.00058
5,CCTATCGA,0.0031
6,CCATTGTC,-0.0467
7,AAGTGCGG,-0.17
8,ATTGGGGG,-0.23
9,AGCCGTAG,0.0364
10,GCCAGTAA,-0.141
11,ACATGTTC,-0.0547
12,ACAATAGA,0.0663
13,CGCACTCA,-0.0217
14,CGATAGAG,-0.192
15,ATTCCAAA,-0.0728
16,TGACCACA,-0.0342
17,GGCCGGCA,-0.0051
18,AAACATAG,-0.124
19,ACTTCTAG,-0.283
20,CAGCGCCA,-0.0392
21,CAATTATC,0.113
22,GTAGCGAA,-0.027
23,ATTCGCCG,0.152
24,CGCGTAAG,-0.0896
25,CGACACCA,0.168

row,Sequence,PBM E-score
1,CCGCTCCC,-0.222
2,AGACTCAC,0.399
3,ATAAGTAT,-0.0454
4,CTTCGTTA,-0.206
5,CAGGTTAG,0.0401
6,ATATCTAG,0.0739
7,AGGGTTTA,-0.0923
8,TCTTTAAA,-0.151
9,ATTGAGGG,-0.207
10,CAGCTCTC,-0.147
11,CAGCAGTA,0.0508
12,GCATTACC,-0.193
13,TAGGACTA,0.066
14,AAATCTTG,-0.0498
15,AAGACGGG,-0.0364
16,GACCGTAA,0.0036
17,AGACGGAC,0.014
18,GCCTAAGC,-0.316
19,ACTGGAAG,-0.0451
20,GAACGCCC,-0.278
21,ACGAGCGC,-0.128
22,AATTTGGC,-0.281
23,AATTACGT,-0.106
24,ATGTGATA,0.0863
25,ATCCCCCA,-0.291

row,Sequence,PBM E-score
1,ACATATGG,0.201
2,GGCGCAGA,0.104
3,CTACAACC,0.00353
4,ACGGTAGC,0.0102
5,CTCGCTTC,-0.169
6,CACAATAG,0.0593
7,TAGCATAA,-0.185
8,GGCCGGAA,0.0659
9,AACGTCGA,0.0261
10,CAAACGTG,-0.0382
11,CTAACAAG,-0.164
12,ACGTTCCT,-0.0273
13,GGAATACA,0.0161
14,ACCAAGAG,0.0991
15,CGGCGCCC,-0.127
16,GAGCTCAA,-0.11
17,ATCGGGGA,0.0201
18,AGCGGATA,0.0445
19,CGGCTCTC,0.0088
20,AGAGTGAA,-0.0205
21,ACGACCAC,0.0873
22,AGAGGCGC,-0.303
23,GGCTAGAA,-0.0859
24,ACGCCCCT,-0.128
25,CCCCACAA,0.0884

row,Sequence,PBM E-score
1,ACATTACG,-0.00945
2,ATGCTTGC,-0.0711
3,CGAAGCTA,-0.171
4,GCAACAAA,-0.0285
5,CCGACAGA,0.215
6,CGCCTCTA,-0.158
7,CTTTGGGA,-0.185
8,CTGTACAG,-0.0141
9,AGGATCCT,-0.0216
10,ATCACCCC,0.199
11,AACTTATC,-0.102
12,GCGCGTCC,-0.0575
13,AGCCCAGA,0.0242
14,CCTAGCCG,-0.175
15,CTAAAAAC,-0.227
16,AAGGGGCG,-0.0512
17,AAGACCAA,-0.0213
18,GCGCTTCA,-0.0639
19,GAGACTGC,0.0756
20,AAACTATG,0.0489
21,ACGTTAAA,-0.236
22,CCCTGCGC,-0.119
23,TCGTGTCA,0.0355
24,ACTGATTA,0.147
25,CGTTAAAG,-0.137

row,Sequence,PBM E-score
1,CGTGCTTC,0.0894
2,CCACGTAG,-0.213
3,AAACCGAT,-0.00695
4,CAGCGGCC,0.107
5,ATGTGGTG,0.227
6,CGTTATAG,-0.103
7,GCGGCTCA,0.206
8,CATTTCTC,-0.0286
9,TGAGAAAA,-0.106
10,GCACTGCC,-0.039
11,AACCCCCA,-0.225
12,GAGGTTCA,-0.106
13,ACAACAGA,-0.122
14,CGTACTTC,0.0221
15,ATAGGCAG,0.0923
16,ACATATCG,0.191
17,TACCCGAA,-0.0342
18,CGCACCTA,-0.0281
19,GAAGTAAA,-0.184
20,CTAGGCGC,-0.0163
21,AGTGAGAC,0.0195
22,TCATGGGA,0.155
23,CGCCAATA,-0.0478
24,ACTTACCT,-0.0556
25,CGACGGCG,0.146

row,Sequence,PBM E-score
1,AATGCCTA,-0.281
2,CACTCCAG,0.0538
3,ACAGCAGC,0.185
4,CAGCTGAG,0.00591
5,CTATACCA,0.0306
6,CGAGTCAG,0.429
7,AGTAGTAT,0.23
8,GGACGTAC,-0.124
9,AACTTGAT,0.124
10,GACCATGA,0.196
11,CTAGTCGA,0.0492
12,ACCAGACA,-0.0188
13,AAAAAGTC,-0.0407
14,AACGACAT,0.0855
15,CAACGAGC,0.0212
16,GTCCAAAA,-0.125
17,AATCGTGC,0.07
18,CTTTCAGA,0.0207
19,AAGGCTGC,-0.0963
20,TGCAGACA,-0.00645
21,TGAATCCA,0.185
22,CTGAACCA,0.245
23,CTCCCCCA,-0.127
24,CCAGGGGC,-0.0839
25,CTCACCTC,0.127

row,Sequence,PBM E-score
1,GATGACAA,-0.00976
2,AGGCGCTC,-0.0954
3,GGCCTCAC,-0.0776
4,AAACTGTG,0.0924
5,ATCTGCTG,-0.0283
6,ATATGCGA,0.0841
7,GCGAACAC,-0.0481
8,TAACTCAA,0.108
9,CCTTGCAG,-0.139
10,ACGGAGGA,-0.115
11,CCACATTA,0.126
12,CGCGAGTA,0.112
13,AACGACGG,0.0615
14,CCTCGGGC,0.0668
15,CATTGTGA,0.177
16,ACCCGGTA,0.0969
17,TGCTTGAA,0.0354
18,GAACGCCA,-0.0323
19,GAGGTTCC,0.0147
20,CCTCTTGC,-0.118
21,CTGAGGTC,-0.0896
22,CAAGTGAC,-0.00136
